Test results reported in PubChem BioAssay AID588579 (National Center for Advancing Translational Sciences (NCATS), 2011).
Several values for one entry are separate records, joined by “and”; a condition that tells them apart may be missing. Equal entries are not always repeated. The campaign covered roughly 400,000 compounds. About 2,200 (0.55%) were called active. The inconclusive results got no clear call from the source; some entries with a clear call stand among them for comparison. Calls follow the shape of the dose curve; as a rule, active = well fitted inhibition curve with a large enough effect; inconclusive = small, poorly fitted or top-dose-only effect, or another doubt; inactive = no such curve, though single readings can be large or run the other way. Potencies beside an inconclusive call are fits to weak or partial responses and may not hold up.

Target: DNA polymerase kappa (Homo sapiens) (UniProt Q9UBT6)
Experiment: qHTS for Inhibitors of Polymerase Kappa
Settings: purified Pol kappa, fluorescent DNA synthesis assay, 10 min; series mostly up to 107 µM
Summary of the method: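 First, compounds were pin-transferred onto 10 nM Pol kappa. After 15 min at room temperature, substrate was added to 50 nM final. Fluorescence was then measured kinetically at 0 and 10 min.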
Potency is read from the fitted curve at half-maximal effect; tags tell the direction and shape of the fitted curve.

Sequence of UniProt Q9UBT6 (Q9UBT6 whole entry, looked up): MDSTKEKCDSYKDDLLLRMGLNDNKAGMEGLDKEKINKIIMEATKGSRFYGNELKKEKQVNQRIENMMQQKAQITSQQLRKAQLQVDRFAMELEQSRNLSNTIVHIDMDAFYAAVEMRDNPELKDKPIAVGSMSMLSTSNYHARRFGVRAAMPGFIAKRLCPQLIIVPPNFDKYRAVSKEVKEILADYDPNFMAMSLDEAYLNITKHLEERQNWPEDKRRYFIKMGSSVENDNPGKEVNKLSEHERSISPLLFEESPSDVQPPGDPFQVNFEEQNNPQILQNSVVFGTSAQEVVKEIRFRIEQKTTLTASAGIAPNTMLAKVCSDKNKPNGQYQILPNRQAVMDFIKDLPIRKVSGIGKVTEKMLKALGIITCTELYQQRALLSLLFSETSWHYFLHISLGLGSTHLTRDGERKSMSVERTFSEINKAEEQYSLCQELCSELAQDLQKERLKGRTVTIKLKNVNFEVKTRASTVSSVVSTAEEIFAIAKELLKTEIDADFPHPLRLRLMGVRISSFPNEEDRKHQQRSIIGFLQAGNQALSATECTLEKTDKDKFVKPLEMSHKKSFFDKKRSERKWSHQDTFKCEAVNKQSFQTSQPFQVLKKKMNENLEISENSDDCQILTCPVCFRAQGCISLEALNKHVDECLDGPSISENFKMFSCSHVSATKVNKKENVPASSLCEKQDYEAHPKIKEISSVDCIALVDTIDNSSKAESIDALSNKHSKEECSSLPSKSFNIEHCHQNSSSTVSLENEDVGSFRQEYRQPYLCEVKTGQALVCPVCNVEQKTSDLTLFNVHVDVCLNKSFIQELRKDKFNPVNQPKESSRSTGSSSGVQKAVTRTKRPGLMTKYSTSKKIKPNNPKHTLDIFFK

Structure (SMILES)	Potency
CC1(C)C(=O)Nc2ccccc2N1C(=O)COC(=O)c1cc(S(=O)(=O)N2CCOCC2)ccc1F	inconclusive: 100 µM [inhibitor, single point]
CCOc1ccc(NC(=O)COc2ccc(S(=O)(=O)N3CCOCC3)cc2)cc1	inconclusive: 112 µM [inhibitor, partial curve, poor fit]
COc1ccc(S(=O)(=O)N2CCN(c3ccc(C)cc3C)CC2)cc1OC	inactive
COc1ccccc1CNc1ccnc(-c2ccc3c(c2)OCO3)n1	inactive
CCNc1cc2n(c(=O)n1)CCc1cc(OC)c(OC)cc1-2	inactive
Cc1cc(=O)c2c(O)c3c(O)cc(=O)c4c3c3c(cc(O)c1c23)C(C)(C)C=4O	inconclusive: 15.8 µM [inhibitor, single point]
NC(=O)C1CCN(C(=O)CCc2nc3sc4c(c3c(=O)[nH]2)CCCC4)CC1	inconclusive: 89.1 µM [inhibitor, single point]
O=C(NN1C(=O)CSC1=S)C(=O)NN1C(=O)CSC1=S	inconclusive: 10 µM [inhibitor, full curve, poor fit]
COc1ccc(-c2nc3cnc(Nc4cccc(OC)c4)nc3n(C)c2=O)cc1	inactive
CC(=O)Nc1ccc(SCC(=O)NC(=O)c2ccccc2Br)cc1	inconclusive: 100 µM [inhibitor, single point]
CC(C)N1CC(C(=O)Nc2ccc(F)c(Cl)c2)CC1=O (stereo not given)	inconclusive: 89.1 µM [inhibitor, single point]
Cc1ccc(S(=O)(=O)Oc2cccc(/C=N/n3cnnc3)c2)cc1	inactive
COc1cc(S(=O)(=O)Nc2ccc(C)cc2)ccc1N=Cc1c(C)c(C#N)c(=O)n(C)c1O	inconclusive: 35.5 µM [inhibitor, single point]
COc1ccc(CCNC(=O)c2cnc3ccc(C)cn3c2=O)cc1OC	inactive
Oc1cc2c(cc1O)[C@H]1c3ccc(O)c(O)c3OC[C@@]1(O)C2	active: 398 nM and active: 22.4 µM
CN1C(=O)CSc2ccc(NC(=O)NCc3ccc(F)cc3)cc21	inconclusive: 89.1 µM [inhibitor, single point]
COc1cc2c(Nc3ccc(NC(=O)c4ccccc4)cc3)ncnc2cc1OCCCN1CCOCC1	inconclusive: 44.7 µM [inhibitor, partial curve, poor fit]
O=c1[nH]n2c(=O)c3c([nH]c2c1N=Nc1ccccc1)CCC3	inconclusive: 89.1 µM [inhibitor, single point]
NC1C(N)C(N)C1N (stereo not given)	inactive
COc1cc(NC(=O)CSc2ccc(-c3sc(C)nc3C)nn2)cc(OC)c1	inactive
